The full ranking holds about 33,000 sequences; the median of “E-score (-0.5 to 0.5)” is about -0.053, and the highest 2% start at about 0.37. This is one part of the list.
The sequences below were run against Hap1 (UniProt P0CE41) (assay: PBM E-score (8-mer binding enrichment) (E-score (-0.5 to 0.5)); higher = stronger / more preferred TF binding; most listed sequences are background and not binding sites). Conditions: protein concentration: 200 nM; construct: GST-DNA-binding domain.
Method in brief: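 Bound GST-tagged yeast transcription factors, applied at about 100-200 nM to double-stranded universal all-10-mer Agilent arrays, were detected with fluorescent anti-GST. Scans were normalised with masliner. A modified Wilcoxon-Mann-Whitney statistic, the E-score, was assigned to each ungapped eight-base word pooled with its reverse complement by the Universal PBM Analysis Suite.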

Chain of UniProt P0CE41 (P0CE41 whole entry, the tested form may be a part): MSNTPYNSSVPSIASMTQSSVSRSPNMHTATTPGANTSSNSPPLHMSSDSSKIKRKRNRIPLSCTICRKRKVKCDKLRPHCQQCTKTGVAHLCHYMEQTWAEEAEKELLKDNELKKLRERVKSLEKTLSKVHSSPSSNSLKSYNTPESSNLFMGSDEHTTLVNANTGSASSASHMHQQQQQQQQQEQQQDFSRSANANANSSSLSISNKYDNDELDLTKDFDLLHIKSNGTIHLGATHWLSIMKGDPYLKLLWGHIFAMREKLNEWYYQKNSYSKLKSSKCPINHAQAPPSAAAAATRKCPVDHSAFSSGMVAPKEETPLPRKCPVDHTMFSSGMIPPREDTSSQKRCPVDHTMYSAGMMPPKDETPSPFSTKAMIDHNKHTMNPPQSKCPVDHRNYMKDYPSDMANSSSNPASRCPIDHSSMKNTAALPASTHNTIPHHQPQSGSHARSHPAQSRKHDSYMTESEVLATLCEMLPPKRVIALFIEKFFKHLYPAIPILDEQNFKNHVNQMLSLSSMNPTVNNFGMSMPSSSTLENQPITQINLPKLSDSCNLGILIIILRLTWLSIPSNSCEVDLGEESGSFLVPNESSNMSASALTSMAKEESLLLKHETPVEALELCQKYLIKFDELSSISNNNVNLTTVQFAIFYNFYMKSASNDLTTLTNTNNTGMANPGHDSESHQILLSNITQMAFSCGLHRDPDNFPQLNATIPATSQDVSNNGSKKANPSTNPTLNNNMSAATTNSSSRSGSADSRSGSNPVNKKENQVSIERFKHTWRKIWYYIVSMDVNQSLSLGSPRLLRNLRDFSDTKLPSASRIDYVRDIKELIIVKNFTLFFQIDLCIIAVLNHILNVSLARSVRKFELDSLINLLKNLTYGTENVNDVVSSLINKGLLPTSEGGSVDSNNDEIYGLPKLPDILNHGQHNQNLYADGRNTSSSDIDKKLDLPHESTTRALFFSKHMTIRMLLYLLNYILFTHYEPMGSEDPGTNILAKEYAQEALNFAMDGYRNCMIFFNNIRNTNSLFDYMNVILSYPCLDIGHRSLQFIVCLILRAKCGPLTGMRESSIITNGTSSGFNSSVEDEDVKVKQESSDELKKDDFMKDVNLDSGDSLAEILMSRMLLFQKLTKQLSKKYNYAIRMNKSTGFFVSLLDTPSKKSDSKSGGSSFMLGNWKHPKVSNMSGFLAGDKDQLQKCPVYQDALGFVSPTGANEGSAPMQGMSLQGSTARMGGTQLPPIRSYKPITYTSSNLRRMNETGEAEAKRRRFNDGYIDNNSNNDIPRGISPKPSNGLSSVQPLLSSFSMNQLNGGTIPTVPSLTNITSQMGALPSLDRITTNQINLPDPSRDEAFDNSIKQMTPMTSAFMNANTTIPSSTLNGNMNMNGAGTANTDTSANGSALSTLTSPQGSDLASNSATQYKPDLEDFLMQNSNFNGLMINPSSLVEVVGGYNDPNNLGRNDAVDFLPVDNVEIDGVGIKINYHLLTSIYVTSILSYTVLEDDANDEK

Sequence | PBM E-score
GAATAAAC | -0.001
ACGCGACT | -0.0752
GCGTGGTA | 0.109
ACGAGGAA | -0.0333
ACTCCTGC | 0.113
AAGCAGAG | -0.354
ATCTCGGG | 0.356
GCAGACCA | 0.0072
ACGCGACA | -0.0338
GCACTTTA | -0.0226
CATCTTAG | -0.059
ATCGATAG | -0.0823
GTTTACCA | -0.0225
CGGCTCAC | 0.0997
CCGGGGAA | 0.372
CGCGAGCC | 0.214
AATGGAAA | 0.00111
GCAGAGAA | -0.135
GCCGGTCC | 0.323
ACTGGTCA | -0.106
GATTATAA | 0.173
AAAGGATA | -0.0168
AGCGGTAC | 0.0325
ATTGAGAG | -0.0536
AAGGGCAT | -0.353

Sequence | PBM E-score
AGTCCGAT | 0.432
AATCACAA | -0.0867
GTCTCAAC | -0.178
CCGAAGCC | 0.264
CAGTGCGA | -0.227
CCGGACTC | 0.361
AGCTGATG | -0.0646
CAGTACAG | -0.116
AATCCCCT | -0.138
AATTAGTC | 0.0725
GCCCAACA | -0.211
CAGGCTTC | 0.0635
ATCCTAGA | 0.0243
AGGGTACG | -0.0528
ACAGTAGA | -0.213
CAGTAGGG | -0.206
GGCGCGGA | 0.328
ATAGTCGG | 0.214
ACGTCCCC | 0.00169
AGTGTGAC | -0.373
TTCTCCAA | -0.245
GCAAGGCC | 0.117
CGCTAACG | 0.171
ATATCCAA | -0.0161
CCTAAACA | -0.158

Sequence | PBM E-score
CCGAGCGC | 0.384
AATTGTTC | -0.0306
TAGTCTAA | -0.0657
CTTGTCAC | -0.123
CGTGGGTA | 0.00442
CTGAGTCC | -0.0126
AGATGTGG | -0.238
AGCATGAC | -0.213
AATCGATC | -0.0397
GCAAGTAC | -0.195
GAAAGGGC | -0.0881
AAGACAAG | -0.108
GGGAGACC | 0.0532
GTGATGTA | -0.043
AACCCGCC | 0.212
CTCACGCC | -0.0132
GTACAGAA | -0.0691
CACACTGA | -0.299
ATATAGGG | -0.104
GTCGCCCA | -0.211
CTACTACC | 0.068
TGCCTTAA | -0.15
ACACGTAA | -0.198
GGTTAAAA | 0.109
TACCCCCA | -0.0886

Sequence | PBM E-score
CGTGCTGA | -0.256
AGCCTTAC | -0.142
AACCTAGG | -0.0459
GCCGGGAA | 0.326
AAACGACG | -0.136
CAGCATCC | 0.0424
CCGAGGGC | 0.333
GATCCTGA | 0.0787
CCGACGAG | 0.259
CGGGGCAG | 0.257
CTGGAGGA | -0.25
CTTGAATC | -0.128
CAAGATCC | 0.059
TCATAGCA | -0.268
CACCCAAG | -0.111
GAGAACTA | -0.0962
GCCAACAA | -0.197
GGAGGGGA | 0.0268
CCAGCAAG | -0.153
CCTATGCC | -0.186
CACGGCCA | 0.0826
TGCGGTAA | 0.042
GAGGTAGC | -0.0529
AATAGTGT | 0.201
ACAAAACG | 0.0381

Sequence | PBM E-score
CGGTCACA | 0.161
ACCGGTCC | 0.329
AGCAGACC | 0.0307
AAGTCGTG | -0.209
GACTAACA | 0.0163
CCTCTGTA | -0.255
GGATCTCA | -0.055
CGTGATAC | -0.0629
AATGCGGC | 0.218
GTATGGGA | -0.187
ATTTGACG | -0.00555
GCAACTCC | 0.113
CCTCCCTC | 0.0165
ATCAGATG | -0.243
GAACCCAA | -0.257
ACCTGCAC | -0.0824
CATATCGC | 0.179
GGGGGAAC | 0.0171
GAAATTGC | -0.0453
GGTTACAC | -0.0561
AAACCACG | -0.0117
CCCGAGAC | 0.32
CGCTAAGC | 0.00998
AGTCATTA | -0.422
AGGACTGA | -0.193

Sequence | PBM E-score
ACAGAGAC | -0.0779
ACACTCGC | 0.116
CGGTGGTA | 0.24
GTAGGTCA | -0.0302
GAGTTGGA | -0.00873
GACATCCA | -0.175
GCCAATCA | -0.232
GAGGCAGC | -0.0968
CAATGTAG | -0.0808
GACGTAGA | -0.165
AGGTCACC | -0.122
AGCCAGAG | -0.199
AGATCATG | -0.226
ACGCCGGG | 0.306
ACCCAGCT | -0.113
CCTGTCTC | -0.112
AAGTGCAC | -0.0983
AATAATAC | -0.0134
ACACGCTA | 0.0221
GCGACTTA | -0.0228
AGTCATGA | -0.165
CTCCGTAC | 0.196
CGATAAAG | 0.339
GTGAGTAA | -0.188
ATTAAATC | 0.21

Sequence | PBM E-score
GTATAATA | 0.0596
ATTGATTA | 0.0695
ACGTCGCC | -0.0473
ACCGGGGG | 0.379
GTCCTAAA | 0.0632
TACAGGCA | -0.0782
GTGTACAC | -0.215
AGGGCATA | -0.102
CGTGTTAC | -0.142
AACGGGAT | 0.321
CTATAAAC | 0.122
CTACGCCC | 0.0263
TAGTTCGA | -0.21
CCACCAGG | -0.128
AGTAGGGC | 0.00312
ACCCTTTG | -0.0833
CGTTTTAC | -0.065
ATTGTGCC | -0.0487
AGTGGTAG | -0.272
CAAAGTCG | -0.114
GCGCGAAC | 0.224
ATGGTAGG | -0.267

From the supplement of paper PMC3334620
